From the supplement of paper PMC10126150
Values marked as one replicate rest on one cluster of the flow cell; about a third of the high ones do not repeat.

Test system: ATP
Assay: switch fluorescence ratio, 500 uM ATP over buffer (Cy3 cluster intensity, sum of 5 cycles each) (fold (ratio)); higher = stronger signal-on switching upon ATP binding; sequences stand for … in TCGTCGGCAGCGTCAGATGTGTATAAGAGACAGTTTTTTTTTTTTTTTTTTTTTTTTT…TC
Details: aptamer strand: ATP DNA aptamer (quencher-CACCTGGGGGAGTATTGCGGAGGAAGG + anchor), 100 nM annealed; ATP concentration: 500 uM; one replicate
Method in brief: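 Values give the fluorescence ratio for each switch-domain sequence, averaged from per-cluster ratios of summed target-cycle to summed buffer-cycle Cy3 intensity. The Cy3-labelled switching-strand clusters sat on a modified Illumina MiSeq flow-cell, were annealed to 100 nM quencher-labelled ATP aptamer, and were imaged in selection buffer, then after 15 min with 500 uM ATP at 22 °C. Five cycles ran with NaOH stripping and re-annealing between them, and clusters outside 100-1000 RFU were excluded.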
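Note: ATP exposure 15 min at 22 °C before imaging.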

Sequence	switch fluorescence ratio
TCTACATACG	1.42
TCTTCGGGCA	1.06
ACGTAATGGA	1.17
CCAGGAAAGG	1.08
AAGAGGTACT	1.01
TGGGCCAGTA	0.928
AAACATCAAG	1.03
TACCCTGGAG	1.02
ACTGCCACC	1.4
ACTCATGGAT	0.966
TCGATATTAC	1.39
AATCTGTGCT	0.977
TTCCAGGTT	1.07
ACCAGATGT	1.08
CTAACTGCTA	1.14
GAGTTGTAAT	1.06
CGAACGGTGA	1.05
GCTTGATGGA	1.01
GCAGTGCAGG	1.04
GACGGTTCTC	1
ACGGCAGACA	1.06
GGCTAGAGAG	0.999
AAAGCCGGTC	1.2
TAAACCGTGC	2.29
CTATAGCATA	2.24
CTGATGAGCG	1.01

Sequence	switch fluorescence ratio
CAGTTGGCCT	1.01
TGACGGTTAC	1.9
TCATGCAGTA	1.02
CGAGACAAG	0.953
GTGGAGATTT	0.99
GGGATCGCGC	1.02
CTTGTTGCTC	1.02
TCACATTGGC	0.974
TGGTGAGGCG	1.02
TAGGTTCTGG	0.978
TTAACCACGC	1.07
CGGCATCTTT	0.968
GGGGGTCGAG	1.01
GAGAAAAATC	1.01
ACGGTACG	0.997
TATGGATGAT	1.02
CACGAGGCTT	1.09
TACATAATCG	1.03
CAAAACACTA	1.04
GAGCAAACTC	3.67
TGCCATTGAG	0.933
ATATTCACCT	1.19
GGTGATTATG	0.973
CGAATCCGGT	1.01
CAGCAGCAAT	3.08
AAACTGCTTA	1.03

Sequence	switch fluorescence ratio
TCCTTACTAG	1.06
AGTGTCTAGG	0.981
TATCGCGCTG	0.964
TAAACTAGTG	1.05
GATGCGGCCA	1.01
ACCATGATCG	1.02
TATTGAGTAC	1.03
ACTCATGCGT	1.06
ACTGGAGGTA	0.99
GCCCTATTGA	0.991
ATCACTCCT	1.04
CGAGGAAGCC	0.952
TCGCCTGACG	1.06
TGGGTGATC	1
GACGCTCAGA	1.07
ATGCGGCCGA	0.984
GTGTTAAGAG	0.979
TAGGAAGTTG	1.01
ACGTAGAATC	1.18
GTGTATAATC	0.985
TGGACGGGGG	0.99
CTTAGTACTT	1.04
GATCTACATC	1.02
GCCATTCAGC	1.05
TTGCTTAATT	1.07
GCAAGAAAGC	1.02

Sequence	switch fluorescence ratio
CGGGGCTAGT	1.18
GGCCTTGTGA	0.988
ATTTTCACGC	1.08
CATAATATC	1.06
CCAGAGGGAC	0.987
ACTAAGCGCA	1.04
AGCCTCGTAG	1.01
TGAATCGTGG	0.981
TGAGTTCTTA	0.976
AAAGTGCGCC	0.989
TTCTAAAGCA	1.11
AAGATGTAC	1.06
TGTACAAACA	1.02
CGCTTTCCAA	1
GTATGGTGGT	0.996
TAAGTGGCAT	0.974
TAAGAAGC	1.03
TCGAGGTGCG	1.08
GCCGCAGGGT	1.01
AAATGATCTT	1
AAAAAGATCG	0.925
TAGTGCTGCT	1.01
TATAGGGCGT	1.03
TACAGACAT	1.11
AAAGGAAGCA	1.02
TAGATTCTTC	1.04

Sequence	switch fluorescence ratio
CGAATTGAGT	0.989
CCTCCTAAGA	3.34
TCTAAGGCGG	0.993
ATGGATTACT	1.02
AGAACAGTTC	1.05
TACCGGTCAT	0.974
TGAGGTTTAA	1.01
ACTCAGGGCT	1.03
GACAGTTGAT	0.995
TCCTAAACAG	1.01
AACATGCGTC	1.05
GGCGTTACGG	1.04
AAGCAGCATC	1.14
GATTCGGGGG	0.996
AACAATATGT	1
TGGAACTAT	0.983
TTGGTCGACT	1.02
GCCGCTCGAT	0.963
AGGGGGCGC	0.988
TTGTATACGA	1.01
TAGAGTGTTG	0.967
TCGAGAGACA	1
GGTCTCTGCC	1.04
TGGGGTCGAG	0.995
TCGATAGTG	0.95
AATACTTGAC	1.22

Sequence	switch fluorescence ratio
GACCGTCTCG	1.03
GTTAAACCCC	1.25
ACGGACTCAA	1.41
TACCGCCTGG	1
GCGTGACGTT	0.981
AAATCGAGGG	1.06
TCCGGCGATA	1.01
AGCCGGCGAC	0.966
GTGCCTCAAG	1.03
GAGATTTAAG	1.03
TTGCCAGTGC	1.25
AAGGGATGAA	1.03
CATGTGTTCG	1.03
CCTCGTGTCC	1.41
GGCTCACGGG	1.03
AGATCATTGT	1.07
GTTTTGGATC	1.01
ATGTTATTTC	0.925
GGACAGTCGA	0.971
CATGCTTTGG	0.991
CTCCATTACC	1.38
ATAGCAGAGT	0.975
TTTTGCGTGG	0.992
TCCCCTAGGA	1.08
TACACTTCCC	1.26
AAGTCTTCC	1.48

Sequence	switch fluorescence ratio
AAACAGAAAC	0.999
TGATTATTAG	0.981
AGGCCCGTGA	0.999
GCGGGCCTGC	0.966
GGCGATGGGC	1
CACGCCAGCT	1.08
GACGAAGGAT	1
CACTCTACCA	1.34
TGATTGGAA	1.02
CGATTACGTG	1.04
ACAAGCGTTG	0.996
GGAGGGAAAA	0.989
TTAAAGGGG	1.01
GACGTTATC	1.19
CACTGAAGCT	0.97
CGTCAGGCGT	1.04
GATTGGGGCC	0.978
TAAGATAGGC	0.984
GGGTGAACCT	1.21
CTGTTAGAGC	1.05
ATGAGTCGCT	1.04
CATCGGGGGC	1.07
CGCAACACTT	4.26
CTCAACTGAA	1.02
CGAAGGCGGG	1.02
GTTATGCAGC	1.02

Sequence	switch fluorescence ratio
TCAGAACAT	1.06
GGTGCAGCCG	0.935
GACGGGCAAC	6.33
GGTAATGTAT	0.979
CAGATCTCCC	1.12
TTCACCGAAG	1.06
GGTTAAGTAA	0.986
TTGCGCTTAA	1.05
TCACATAGGG	1.03
TGCAGATGC	1.07
GTATGTATAC	1.08
TTGCCATCGT	0.968
GCATCAGCAC	1.13
AGCACCGGCG	1.03
TTTTCGAACC	1.02
CTCGGCCTAG	1.03
CTGTTGGGC	0.991
TTAGTGCG	1.04
CAGATGAACT	0.984
